Data set [1] concerns HeLa Kyoto. The data set is described as follows: solubility in G1/S (NP-40 vs SDS abundance) (log2 ratio); higher = more soluble. The note with it: cell cycle stage: G1/S.
Data set [2] relates to HeLa Kyoto. The data set can be described thus: melting temperature (median over replicates), in situ; higher = more thermally stable.
In data set [3] the test system is HeLa Kyoto. The data set is described as follows: thermal stability score vs G1/S (z-score of summed log2 fold changes over temperatures); higher = more thermally stable than in G1/S.
Data set [4] relates to HeLa Kyoto. The data set can be described thus: solubility change mitosis vs G1/S (difference of NP-40 vs SDS log2 ratios) (log2 ratio difference); higher = more soluble in mitosis.
[5] abbreviates: cell cycle stage: early G1 (4.5 h after nocodazole release).
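Throughout, for melting temperature (median over replicates), in situ: HeLa Kyoto cells synchronized by double thymidine or nocodazole block, proteins quantified by TMT10plex mass spectrometry, three independent biological replicates.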
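Throughout, for solubility change mitosis vs G1/S (difference of NP-40 vs SDS log2 ratios): synchronized HeLa Kyoto cells (double thymidine block for G1/S, nocodazole release for mitosis), protein amounts in NP-40 versus SDS lysates quantified by mass spectrometry, three biological replicates.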
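Throughout, for solubility in G1/S (NP-40 vs SDS abundance): HeLa Kyoto cells arrested at G1/S by double thymidine block, proteins quantified by TMT10plex mass spectrometry in mild NP-40 versus SDS extracts, three biological replicates.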
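Throughout, for thermal stability score vs G1/S (z-score of summed log2 fold changes over temperatures): synchronized HeLa Kyoto cells, proteins quantified by TMT10plex mass spectrometry, three biological replicates, mitosis taken 0.5 h after nocodazole release, G1/S directly after double thymidine block.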

APLP2 (sequence left out): in data set [1], the “solubility in G1/S (log2)” value was -0.151. In addition, the melting temperature in data set [2] (cell cycle stage: G1/S) was determined as 55 °C; in data set [2] (cell cycle stage: mitosis), 54.8 °C. In addition, the thermal stability score was determined as 3.53 in data set [3] (setting [5]) and 2.78 in data set [3] (cell cycle stage: mitosis). For the same substance, the “solubility change mitosis (log2)” value in data set [4] is 0.0155.

Consider RAD18 (sequence left out), for which the “solubility in G1/S (log2)” value in data set [1] is -0.132. In addition, the figures for the melting temperature in data set [2] (cell cycle stage: G1/S) and in data set [2] (cell cycle stage: mitosis) were 46.6 °C and 49.8 °C, respectively. In addition, the thermal stability score in data set [3] (setting [5]) came out at 1.96; in data set [3] (cell cycle stage: mitosis) it was 4.07. The “solubility change mitosis (log2)” value in data set [4] was 0.148.

The values are drawn from the supplement of paper PMC5998384.
